Assay results published in paper PMC5700166.
The list shows a part of the results, in another mix than the full data. The list includes weakly bound sequences.

Tests used:
Assay in all cases: protein-binding microarray (PBM)
Conditions in all cases: PBM: ~300 nM protein, 6 mM HEPES pH 7.8, 80 mM KCl, 0.5 mM EDTA, 0.5 mM EGTA, 6% glycerol, 35 ng/ul poly-dIdC, 1% milk, 1 h, room temperature; Ap Aiptasia and Nv Nematostella (sea anemones) / Co Capsaspora / Aq Amphimedon (sponge) / Dm Drosophila / Hu human; RHD is the Rel homology domain; high values mean tight binding; most listed sequences are background and not binding sites; double strand, one strand shown
[1] = target: T1, GST-Nv-NF-kB (Cys allele) (UniProt E5G601)
T1 sequence: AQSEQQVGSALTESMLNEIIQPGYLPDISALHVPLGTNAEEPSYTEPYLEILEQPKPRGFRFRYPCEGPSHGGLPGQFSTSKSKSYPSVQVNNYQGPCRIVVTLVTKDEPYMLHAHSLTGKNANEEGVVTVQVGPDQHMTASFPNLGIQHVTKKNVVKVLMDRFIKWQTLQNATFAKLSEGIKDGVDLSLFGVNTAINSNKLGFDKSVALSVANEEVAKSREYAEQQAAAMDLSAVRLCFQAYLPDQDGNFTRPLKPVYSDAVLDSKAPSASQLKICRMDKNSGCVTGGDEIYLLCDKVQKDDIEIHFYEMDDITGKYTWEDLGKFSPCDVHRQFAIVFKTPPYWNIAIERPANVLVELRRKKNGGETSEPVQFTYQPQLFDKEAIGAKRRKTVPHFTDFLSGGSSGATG

GST-Dm-Relish = target: T2, GST-Dm-Relish (UniProt Q94527)
T2 sequence: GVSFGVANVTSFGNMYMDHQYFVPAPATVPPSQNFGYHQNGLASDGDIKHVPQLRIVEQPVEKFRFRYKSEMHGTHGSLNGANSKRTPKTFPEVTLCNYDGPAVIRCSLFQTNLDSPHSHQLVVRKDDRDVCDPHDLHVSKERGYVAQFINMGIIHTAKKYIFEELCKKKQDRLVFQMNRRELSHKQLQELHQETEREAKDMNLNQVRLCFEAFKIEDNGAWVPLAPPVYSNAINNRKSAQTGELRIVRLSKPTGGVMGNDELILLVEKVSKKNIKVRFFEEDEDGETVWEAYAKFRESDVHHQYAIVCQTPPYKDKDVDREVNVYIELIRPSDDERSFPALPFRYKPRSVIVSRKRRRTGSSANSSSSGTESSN

GST-Co-NF-kB = target: T3, GST-Co-NF-kB (UniProt F1ARL5)
T3 sequence: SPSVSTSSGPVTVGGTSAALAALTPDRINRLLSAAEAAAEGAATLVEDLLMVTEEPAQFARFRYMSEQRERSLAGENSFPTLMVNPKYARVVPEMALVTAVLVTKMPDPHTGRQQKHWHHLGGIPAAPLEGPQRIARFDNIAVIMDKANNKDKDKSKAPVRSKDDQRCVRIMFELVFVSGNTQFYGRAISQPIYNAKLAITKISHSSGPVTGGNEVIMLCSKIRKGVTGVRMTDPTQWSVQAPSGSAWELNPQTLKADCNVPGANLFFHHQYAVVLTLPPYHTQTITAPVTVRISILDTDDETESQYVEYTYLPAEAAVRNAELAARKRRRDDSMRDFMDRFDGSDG

Sequence | binding signal [1] | binding signal (GST-Dm-Relish) | binding signal (GST-Co-NF-kB)
CCGATTAACATCAGGGGGTGGAATGATGTTAATCGGGTCTTGATTCGCTTGACGCTGCTG | 3.19 z-score | 2.66 z-score | 
CCGATTAACATCAATTCCCCTGATGATGTTAATCGGGTCTTGATTCGCTTGACGCTGCTG | 7.45 z-score | 3.81 z-score | 
CCGATTAACATCAGGGGGGAACCTGATGTTAATCGGGTCTTGATTCGCTTGACGCTGCTG | 5.48 z-score | 5.48 z-score | 
CCGATTAACATCACGGGGAACTCTGATGTTAATCGGGTCTTGATTCGCTTGACGCTGCTG | 6.61 z-score | 7.12 z-score | 
CCGATTAACATCAGGGGACTTTATGATGTTAATCGGGTCTTGATTCGCTTGACGCTGCTG | 8.29 z-score | 8.18 z-score | 
CCGATTAACATCAAGCACCCCCTTGATGTTAATCGGGTCTTGATTCGCTTGACGCTGCTG | 3.21 z-score | 2.85 z-score | 
CCGATTAACATCAAGGGGGTTTATGATGTTAATCGGGTCTTGATTCGCTTGACGCTGCTG | 6.46 z-score | 8.75 z-score | 
CCGATTAACATCAGGGGGTTCACTGATGTTAATCGGGTCTTGATTCGCTTGACGCTGCTG | 4.09 z-score | 10.4 z-score | 
CCGATTAACATCAACGTATTCCCTGATGTTAATCGGGTCTTGATTCGCTTGACGCTGCTG | 2.78 z-score | 1.41 z-score | 
CCGATTAACATCAGGGGATTTACTGATGTTAATCGGGTCTTGATTCGCTTGACGCTGCTG | 9.25 z-score | 10.5 z-score | 
CCGATTAACATCAGGGGAAATGATGATGTTAATCGGGTCTTGATTCGCTTGACGCTGCTG | 6.87 z-score | 2.27 z-score | 
CCGATTAACATCAGGGAATCCCATGATGTTAATCGGGTCTTGATTCGCTTGACGCTGCTG | 4.92 z-score | 10.4 z-score | 
CCGATTAACATCAGGGGAGACAATGATGTTAATCGGGTCTTGATTCGCTTGACGCTGCTG | 3.18 z-score | 0.429 z-score | 
CCGATTAACATCATACCCCCCCATGATGTTAATCGGGTCTTGATTCGCTTGACGCTGCTG | 2.65 z-score | 3.98 z-score | 
CCGATTAACATCAGGGGGGCGCATGATGTTAATCGGGTCTTGATTCGCTTGACGCTGCTG | 3.14 z-score | 4.09 z-score | 
CCGATTAACATCAATTCCCGTACTGATGTTAATCGGGTCTTGATTCGCTTGACGCTGCTG | 2.92 z-score | 0.879 z-score | 
CCGATTAACATCACAGTACCCCCTGATGTTAATCGGGTCTTGATTCGCTTGACGCTGCTG | 2.85 z-score | 1.94 z-score | 
CCGATTAACATCACGGATTTCCCTGATGTTAATCGGGTCTTGATTCGCTTGACGCTGCTG | 5.2 z-score | 5.3 z-score | 
CCGATTAACATCACGTATTTCCCTGATGTTAATCGGGTCTTGATTCGCTTGACGCTGCTG | 4.03 z-score | 4.26 z-score | 
CCGATTAACATCAGGGAACCCCATGATGTTAATCGGGTCTTGATTCGCTTGACGCTGCTG | 2.07 z-score | 10.5 z-score | 

Sequence | binding signal [1] | binding signal (GST-Dm-Relish) | binding signal (GST-Co-NF-kB)
CCGATTAACATCATGGGGAGGAATGATGTTAATCGGGTCTTGATTCGCTTGACGCTGCTG | 3.68 z-score | 0.52 z-score | 
CCGATTAACATCAAGGTACCCCCTGATGTTAATCGGGTCTTGATTCGCTTGACGCTGCTG | 2.82 z-score | 2.84 z-score | 
CCGATTAACATCAAGGGGAATTATGATGTTAATCGGGTCTTGATTCGCTTGACGCTGCTG | 10.5 z-score | 7.09 z-score | 
CCGATTAACATCAACACTCCCCCTGATGTTAATCGGGTCTTGATTCGCTTGACGCTGCTG | 4.24 z-score | 2.43 z-score | 
CCGATTAACATCACCCGGGTAAATGATGTTAATCGGGTCTTGATTCGCTTGACGCTGCTG | 0.216 z-score | 0.968 z-score | 
CCGATTAACATCAAAATCCCAGGTGATGTTAATCGGGTCTTGATTCGCTTGACGCTGCTG | 1.42 z-score | 5.57 z-score | 
CCGATTAACATCAGGGGGGAACATGATGTTAATCGGGTCTTGATTCGCTTGACGCTGCTG |  |  | 9.73 z-score
CCGATTAACATCAGGGATATCCATGATGTTAATCGGGTCTTGATTCGCTTGACGCTGCTG |  |  | 0.713 z-score
CCGATTAACATCAGGACTATCCCTGATGTTAATCGGGTCTTGATTCGCTTGACGCTGCTG |  |  | 0.561 z-score
CCGATTAACATCAAAAAAACACCTGATGTTAATCGGGTCTTGATTCGCTTGACGCTGCTG |  |  | 0.723 z-score
CCGATTAACATCAGAAATGCCCCTGATGTTAATCGGGTCTTGATTCGCTTGACGCTGCTG |  |  | 1.98 z-score
CCGATTAACATCAGGGGGTGGGATGATGTTAATCGGGTCTTGATTCGCTTGACGCTGCTG |  |  | 3.22 z-score
CCGATTAACATCAGGTAATTACCTGATGTTAATCGGGTCTTGATTCGCTTGACGCTGCTG |  |  | -0.14 z-score
CCGATTAACATCAGGGACGCCCCTGATGTTAATCGGGTCTTGATTCGCTTGACGCTGCTG |  |  | 1.13 z-score
CCGATTAACATCACGTTCCCCCCTGATGTTAATCGGGTCTTGATTCGCTTGACGCTGCTG |  |  | 9.5 z-score
CCGATTAACATCAGGAATCCCTATGATGTTAATCGGGTCTTGATTCGCTTGACGCTGCTG |  |  | 0.587 z-score
CCGATTAACATCAACCCTCCCCCTGATGTTAATCGGGTCTTGATTCGCTTGACGCTGCTG |  |  | 4.5 z-score
CCGATTAACATCAATCCCCCCCATGATGTTAATCGGGTCTTGATTCGCTTGACGCTGCTG |  |  | 6.68 z-score
CCGATTAACATCAGGGCATTACCTGATGTTAATCGGGTCTTGATTCGCTTGACGCTGCTG |  |  | -0.121 z-score
